# Measurements as given in the supplement of paper PMC11417369.
# The other results are listed elsewhere or left out.
# System: PF3D7_0420300 AP2 domain 1 (GST-tagged)
# Assay: gcPBM binding intensity (ln(normalized median fluorescence intensity)); higher = stronger DNA binding
# Procedure, shortened: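 Binding intensity is defined as the maximum Masliner-normalised natural-log median intensity across replicate spots for either probe orientation. It was measured on an Agilent 4 × 180k array of primer-extended double-stranded 36-bp intergenic genomic probes and negative controls, to which GST-tagged P. falciparum DNA-binding domains made in E. coli were applied for 1 h in 1× PBS with 1% milk, 0.2 mg/ml BSA, 0.5% salmon testes DNA and 0.03% Triton X-100. Detection was by Alexa488 anti-GST antibody and scanning at 488 nm.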
row,Sequence,gcPBM binding intensity (ln)
1,TAAAAAATAAAAATTGCACACTAAAAAATTACCCAC [CACACA_site5823],9.7
2,TAAAAAGAAATGTAAAGTACAAATTTGAATAACATG [XGTACX_site7981],9.37
3,TTTTTTTTTCTTTGGTGTACAATGTAATAGAAAATA [XGTACX_site227],8.91
4,AAAAAAAACAAACACACACACAAATATTTATATATT [CACACA_site436],10.1
5,ATATGTATTTATATATGTTTGATTTTTTTTTTTTTT [TGCATGCA_negctrl_site506],9.32
6,AGGAAAAAAGAAAAAACACACATAAATATATATATA [CACACA_site3085],9.5
7,AAATGAAATAAAATCATATATTTATAATTATTATAA [TGCATGCA_negctrl_site612],8.8
8,CATACAGACATACATACACACATACCTATAAATATA [CACACA_site6995],9.82
9,TTTTAATTAAGACACACACACACATATAAATATGTA [CACACA_site7144],10
10,TATCATTTCATATCAAGTACAAACATTTTACATATA [XGTACX_site5307],9.12
11,ATAATAATATATATTGTACACACAAAATGGGAAAAA [CACACA_site8568],9.74
12,TATATATATATAATAGTGCATAAATAAATATATAAA,9.28
13,ATTAAGACACATTGCACACGTGCACCCATAGAAAAA [CACACA_site408],9.38
14,TATTTATTATTAAGATGTACATAAAACACTGAATAA [XGTACX_site4246],9.26
15,GACCATATGAATAATGCACACGTTTTAAAATATTAA [CACACA_site5312],9.29
16,TGAAAAAGGAAAAAAAAAAAAAAAAAAAAAACGAAA [GTGCAC_negctrl_site555],9.36
17,TATCTCATAGTATACACACACACACCCACCCATATA [CACACA_site1739],10.4
18,AATATATATATATTCACACATAAAAAAGTAAAAAAA [CACACA_site5040],9.47
19,CACACGCACGAACACACACACACACGCATATAAATA [CACACA_site6302],10.3
20,AGCTCTTGTCATTTTGCACACACACCCGTATAGGTT [CACACA_site3056],10
21,GATTCTTCACCGTACTCACACATATATATATATATA [CACACA_site5665],9.64
22,AAAAGGGAAATAAAATAAAAAAAGAAACATATATAG [CACACA_negctrl_site455],9.39

row,Sequence,gcPBM binding intensity (ln)
1,ATCCATTATTTTTGTTGTACGGGTAACTTTAAAAAG [XGTACX_site2226],9.25
2,TCTTTTTTTTTTAAACGTACATTGCATTATCACGTA [XGTACX_site6873],9.19
3,TTAATTTCTATATACGCATGTATGAATAAGATATTG [TGCATGCA_site202],8.88
4,TAATTATATGTATACACACACATACATTTACATAAC [CACACA_site3238],9.82
5,CAAACAAACAAATATACACACTTTTGTATAAAGTAA [CACACA_site5860],9.52
6,TATAATTATATATATAGTACAGATTTGTTATGTTTA [XGTACX_site7724],9.2
7,ATTTTTTTATAAGAAAATTTCTAACGTTAAAAAAAA [CACACA_negctrl_site1367],8.61
8,ATGAATTATAAATATTCACACAATATTTTTCATATG [CACACA_site4484],9.16
9,AGTGTGCTCAGCTTAGCACAAATTGGAATACCATGT [CACACA_negctrl_site367],9.25
10,GAAAATGAAATCCTTGCATGTAAAATTAAAATAGAA [TGCATGCA_site569],9.16
11,TTTTTTTCTTAAAGATGTACTTTTTAAAAATAATCT [XGTACX_site1429],8.88
12,GTAGTAATAAATTAAAGTACAGAATATATTATACTA [XGTACX_site2809],9.36
13,CATTTACATGCCAACATGCACTGAACAATCTTTATA [GTGCAC_site9797],9.19
14,ACAAAACTTTTAAGAACACACAAAAATGTACTATCG [CACACA_site7245],9.42
15,TTTTATGAATAATTATGTACATAACAAATGATATAT [XGTACX_site8318],9.09
16,CCCTATATAAATAGCTGTACATTTGAACATGTTCAG [XGTACX_site2187],9.05
17,TACAAAAAAAAATAAAATACATATATATATATATAT [XGTACX_negctrl_site608],9.3
18,TTTACAGGAAAAAATACACACATTATTTTACCTTAT [CACACA_site2833],9.4
19,CAATAAAAATTAAAATGTACAAATAAATATAAATAT [XGTACX_site7265],9.51
20,ACATGCCAAAATCTAATACAATAATAATAAAAAAAA [XGTACX_negctrl_site160],9.22
21,ATATAAATAAACAGGTGTACTATAATGTTCATAGTA [XGTACX_site1553],9.47
22,TATGATTTCACATAATGTACTTGCTAATTCGTGAAT [XGTACX_site1408],9.07

row,Sequence,gcPBM binding intensity (ln)
1,GGGAAAATATTTGGGTGTACAAACAAATTAGCTAGC [XGTACX_site6795],9.24
2,TAATTATATATATATGCATGTTATAATTTTTATTTT [TGCATGCA_site78],9.13
3,AAGAAAATATAAAATGCACACTATAAATTGTATTTA [CACACA_site4257],9.37
4,TCTTTAACAAGTTAAACACACATACATAAATACATA [CACACA_site5406],9.43
5,TTATGTCATAAATGCACACATATACATTGTTTTGAT [CACACA_site646],9.36
6,TGTGTGTGTTCATGGGTGCTTTAATACTATTATAGG [GTGCAC_site9465],9.82
7,TATTATAAAAATATTCAGATACATTAACTTACTTTT [XGTACX_negctrl_site4],9
8,TATTTGCTACATATATGTACTAAAAACTTTTTGCTT [XGTACX_site2362],9.13
9,TATCAATTTTTCTGGCTATCCAATTAGGGGAAGCCA [CACACA_negctrl_site1045],8.63
10,ATTTGCTCACAAGAAGCACACAAAAAAAGAAAAAAA [CACACA_site9338],9.05
11,CAAAAAATTTGACGTAGTACTTAAAAAAAAAAAAAA [XGTACX_site4523],8.81
12,AACACCCACAGACACACACACAAAAATGATTAAAAA [CACACA_site2433],9.83
13,TATTTGTATAAATAAAAATAATATATATCAAATAAC [CACACA_negctrl_site218],9.15
14,ACAAAAATATTATATTGTACATTATTAGTTCATATT [XGTACX_site6750],9.38
15,TTTTTATATAAATAATGTACATTTGGTTTTATTATA [XGTACX_site2125],9.24
16,CAATAAATCGAAATCGTGCACGGACACATGCAGTAG,9.52
17,GGTTCATTTATATGGAGTACAAAAAATATGTATATA [XGTACX_site8209],9.05
18,AAATAATATAAATACACACACACATATATAAATACA [CACACA_site4465],10.2
19,ATATATATAATAAGTGGTACAAGTTATTCATTAAAT [XGTACX_site7063],9.42
20,TTTTTTTATACAATTTTATATATTAAATATTATAAT [CACACA_negctrl_site226],8.99
21,AAAGAAAACGGACTTTGTACTTAAATATAATATAAA [XGTACX_site8585],9.1
22,TAAAGTTATATATTATGTACATATTTGTATACATTT [XGTACX_site2516],9.26

row,Sequence,gcPBM binding intensity (ln)
1,AAATATAGTATTAAAACACACATTTATATAAAAAGG [CACACA_site1482],9.45
2,AACAAAAAAACAAACACACACACACGCATATTTATA [CACACA_site7680],10.2
3,TGAACTCATAGGAAAACACACATATGTGTAATATAT [CACACA_site4267],9.61
4,AAAAACAACACAGATAAATTAACACACACACACATA [XGTACX_negctrl_site588],10.2
5,TATATACTCAGACATACACACAAATAAAAAAACACC [CACACA_site5820],10.1
6,TTATGTGATTTTAATTGTACATAAATATTTGTTAAC [XGTACX_site3489],9.13
7,CACGCATACAGACACACACACACACGGATATAAATA [CACACA_site6445],10.3
8,TGTATTACGAAAAAATGTACAGAAAAAGAAACAAAA [XGTACX_site2777],9.49
9,TTTGTCATAAGCAATGCATGTAAGTTTCTGACATTA [TGCATGCA_site1007],8.86
10,TGGGATAGATCATTTACACACACAAAAAAAAAAAAA [CACACA_site2140],9.62
11,TCTTATATATTTATTTGTACATATATATATATATAT [XGTACX_site7214],9.24
12,AACAACTATTAATTTACACACATGTATTTATTTTAC [CACACA_site5683],9.73
13,AATTGTCAGAGAATATGTACTTAAGTATTTATTGTT [XGTACX_site1947],9.3
14,AATGCATTGATTGCATTCAAAAAAAAAAAAAAAAAA [XGTACX_negctrl_site597],8.35
15,AATAAGATATCTACAACACACATTTAATTTTTTTTT [CACACA_site1641],9.42
16,AATCATAAAGAACATATAATATATATATATATATAT [CACACA_negctrl_site316],9.22
17,ATAAAAAAATAAAACACACACATATATATTATATAT [CACACA_site2810],10
18,TAAATAAAAAAACACACACACATATATATATATATA [CACACA_site2269],9.94
19,AATATATGCTTTCGTTATATTAAATTCAATTTAATG [GTGCAC_negctrl_site76],9.1
20,AATTTTAAAAATATAACACACATATATAAAATATAT [CACACA_site3610],9.35
21,AATGAAGAAAAAAAAAGTACATTATTTTTAAAACTT [XGTACX_site563],9.16
22,TTTTAAATAAAATATTGTACATTAAAATTGTAATAT [XGTACX_site2128],8.86
